Results on 1 molecule are retold here after PubChem BioAssay (NCI).

The structures appear in SMILES notation.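 These data come from cells grown in 96-well plates and exposed to compound for 48 hours at five concentrations. At the TGI there is no net growth.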 The source holds more than one record for some entries. Only these are listed. There may be further records. Records of one sample usually come from different ranges of test concentrations, not given here; some values may only mark the edge of a range.

For one experiment, the system named is U251 CNS. Description: NCI-60 cell line screen, 48 h.
A further experiment has as its system HCT-15 colon. Description: NCI-60 cell line screen, 48 h.

For the molecule `CN(O)C(=O)SCC(NC(=O)CCC(N)C(=O)O)C(=O)NCC(=O)O` (configuration not stated), the TGI in the experiment on U251 CNS is given as > 2 µM, 148 µM, > 2 mM; in the experiment on HCT-15 colon, > 2 µM, 116 µM, > 2 mM.
